The structures appear in SMILES notation. The campaign covered roughly 45,000 compounds. About 200 (0.44%) were called active. About 7% were inconclusive and are not listed. Calls come from the whole dose curve; as a rule, active = well fitted activation curve with a large enough effect; inconclusive = small, poorly fitted or top-dose-only effect; inactive = no such curve, though single readings can be large or run the other way. Some of the results follow.

This is an account of results in PubChem BioAssay AID1347073 (National Center for Advancing Translational Sciences (NCATS), 2019).

The assay can be described thus: qHTS of TDP-43 Inhibitors: NCGC Sytravon Library Screen. Note: 0% is about no effect; nearly all actives have a fitted effect of over 55% in size. The conditions noted are these: yeast TDP-43 toxicity rescue, BacTiter-Glo growth, 24 h; series mostly up to 46.1 µM; growth rescue (activation): at the top concentration. The gist of the method:
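TDP-43-expressing yeast, pregrown in raffinose, seeded at OD600 0.02 in galactose medium with compound for 24 hr at 30 deg C. Growth read by BacTiter-Glo luminescence, so rescue of toxicity appears as activation.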
For `COC(=O)c1ccc(CN2C(=O)NC3(CCCCC3C)C2=O)o1` (configuration not stated), the “growth rescue (activation)” value is inactive: 3.06%.
Regarding `Cc1ccc(C(=O)NNS(=O)(=O)c2ccc(F)cc2)cc1`, the “growth rescue (activation)” value was inactive: 8.7%.
For the compound `CC(C)N1CCN(Cc2ccsc2)CC1CCO` (configuration not stated), the “growth rescue (activation)” value was inactive: -6.04%.
The same measure for `CCN(CC)S(=O)(=O)c1ccc(N2CCOCC2)c(NC(=O)Cc2ccc(Cl)cc2)c1`: inactive: 8.74%; for `CC(C)[C@H](NC(=O)c1ccccc1F)C(=O)OCC(=O)NC(=O)NC1CCCCC1`: inactive: 27.8%; for `O=C(c1ccc(Cl)c(S(=O)(=O)N2CCOCC2)c1)N1CCCCC1`: inactive: -2.84%.
The result for `Cc1ccc(-n2nc(C)c3c(C)c(CCC(=O)Nc4ccc(CN5CCCC5)cc4)c(C)nc32)cc1` reads inactive: -13.4%; that for `CC(C)(C)NC(=O)CSc1nc(O)cc(=O)[nH]1`, inactive: 25.1%.
The same measure for `COCCSc1nnc(NC(=O)C2CC(=O)N(CCc3ccc(F)cc3)C2)s1` (configuration not stated): inactive: 13.5%; for `c1csc(CNc2nc(NCC3CCCCC3)c3sccc3n2)c1`: inactive: 16.5%.
As to `CCCCC(CC)CNC(=O)CCS(=O)(=O)c1cccc2nonc12` (configuration not stated), the “growth rescue (activation)” value is inactive: 22.2%.
The same measure for `C/C(=N/NC(=O)CN1CCN(Cc2ccccc2)CC1)c1ccc([N+](=O)[O-])cc1`: inactive: 8.71%.
The result for `CCOC(=O)c1c(C)[nH]c(C(=O)OCC(=O)NC(C)(C)C)c1C` reads inactive: 0.971%; that for `CCCCC(C(=O)NC1CCCC1)N(C(=O)c1snc(C(N)=O)c1N)c1ccc(C)cc1` (configuration not stated), inactive: -15.7%.
The result for `COC(=O)c1sccc1N(C)S(C)(=O)=O` reads inactive: -28.9%; that for `Cc1ccc(NCc2ccccc2O)cc1C`, inactive: 1.83%; that for `CC1CCCCC1NC(=O)C1CCC(CNc2c(N3CCCCC3)c(=O)c2=O)CC1` (configuration not stated), inactive: 23.7%.
For the compound `CCNC(=O)C1(C)CCCN1C(=O)c1ccc(F)c(Cl)c1` (configuration not stated), the “growth rescue (activation)” value is inactive: 12.2%.
The same measure for `O=C1CCCN2N=C(SCC(=O)Nc3cccc(C(F)(F)F)c3)SC2=N1`: inactive: 8.92%; for `Cc1ccc(Cl)c2c1=NC(=O)C=2c1[nH]c(=S)[nH]c1O`: inactive: 17%; for `COc1ccc(C2=NN(C(=O)CCCC(=O)O)C(c3cn(-c4ccccc4)nc3-c3ccccc3)C2)cc1` (configuration not stated): inactive: -2.61%.
The same measure for `COc1ccc(-c2ccc(CCC(=O)O)n2-c2ccc(O)cc2)cc1`: inactive: -2.92%.
The result for `O=c1c2ccccc2cnn1Cc1n[nH]c(=S)n1-c1ccccc1` reads inactive: -9.3%; that for `COCCn1c(C)cc(C(=O)CSc2nc3nc(C)cc(C)n3n2)c1C`, inactive: 7.8%; that for `CCN1CCCC1CNc1ncnc2c1[nH]c1ccc(Cl)cc12` (configuration not stated), inactive: 25.5%.
Regarding `COCCNC(=O)CN1C(=O)NC2(CCOc3ccccc32)C1=O` (configuration not stated), the “growth rescue (activation)” value is inactive: -21.3%.
Consider `O=[N+]([O-])c1cccc(S(=O)(=O)Nc2ccc(S(=O)(=O)Nc3nccs3)cc2)c1`, for which the “growth rescue (activation)” value was inactive: -1.86%.
The same measure for `COc1ccc(/C=N/NC(=O)CN2CCSCC2)cc1C`: inactive: 20.1%.
Regarding `S=c1[nH]nc(COc2ccc(Cl)cc2)n1-c1ccccc1`, the “growth rescue (activation)” value is inactive: 2.52%.
As to `COc1cc(CCC(=O)OCC(=O)Nc2ccc(F)cc2F)cc(OC)c1OC`, the “growth rescue (activation)” value is inactive: 26.5%.
On to `COc1ccccc1NS(=O)(=O)c1cc(N)ccc1N1CCCCC1`, for which the “growth rescue (activation)” value is inactive: -7.39%.
As for `O=C(C1=C(O)C(=O)N(Cc2ccco2)C1c1cccc([N+](=O)[O-])c1)c1ccco1` (configuration not stated), the “growth rescue (activation)” value was inactive: 4.47%.
The same measure for `CC(=O)Nc1ccc(NC(=O)CSc2nnc(-c3ccco3)o2)cc1`: inactive: -5.52%.
On to `COCc1ccc(CN2CCCC(CO)(Cc3ccccc3)C2)o1` (configuration not stated), for which the “growth rescue (activation)” value was inactive: 6.89%.
The same measure for `CCN(CC)c1ccc(NC(=O)C2CC3CCC2C3)cc1` (configuration not stated): inactive: 8.1%; for `Cc1ccc(CNC(=O)c2ccc(S(=O)(=O)Nc3c(C)n(C)n(-c4ccccc4)c3=O)cc2)cc1`: inactive: -0.786%.
With `CNC(=S)Nc1ccc(Cc2ccncc2)cc1`, the “growth rescue (activation)” value was inactive: -0.546%.
On to `COc1ccc(-n2c(-c3ccc(Cl)cc3)c[n+]3c2CCc2ccccc2-3)cc1`, for which the “growth rescue (activation)” value is inactive: -0.166%.
The same measure for `NS(=O)(=O)c1ccc(CCNCC(=O)NC2CC2)cc1`: inactive: 5.85%; for `Nc1cc(S(=O)(=O)Nc2ccc(Cl)cc2)ccc1N1CCOCC1`: inactive: 8.59%; for `CN(C)C=NC(=O)c1cc(C(=O)c2ccc(Cl)cc2Cl)c[nH]1`: inactive: -7.65%.
The result for `O=C(O)c1nn(-c2cccc(Cl)c2)c(=O)cc1O` reads inactive: 8.09%; that for `CCC(=O)N1CCN(c2cc(N3CCN(C)CC3)c(F)cc2[N+](=O)[O-])CC1`, inactive: -0.0877%.
The result for `O=C(/C(C=Nc1ccc(Br)cc1)=C(/O)c1ccco1)C(F)(F)F` reads inactive: -12.4%; that for `Cc1cccc(Nc2ncnc3ccc(Br)cc23)c1`, inactive: -12.3%; that for `O=C(NC1CCCCC1)N(Cc1nc2ccccc2c(=O)[nH]1)C1CCCC1`, inactive: 28.3%.
Regarding `Cc1cccc(NC(=O)CSc2nnc(-c3n[nH]c4ccccc34)o2)c1`, the “growth rescue (activation)” value was inactive: 17.5%.
The result for `CC1CCCCC12NC(=O)N(CC(=O)NCc1ccccc1Cl)C2=O` (configuration not stated) reads inactive: 7.22%; that for `COc1ccccc1OCc1ccc(C(=O)NCC(C)C)o1`, inactive: -6.68%; that for `O=C(NC(=S)Nc1cc(C(F)(F)F)ccc1N1CCOCC1)c1ccco1`, inactive: 15.5%.
Take `CCC(=O)Nc1nonc1-c1nc2ccccc2n1Cc1ccc(Cl)c(Cl)c1`: the “growth rescue (activation)” value was inactive: 9%.
The result for `CC1CC1c1ccc(/C=C(\C#N)C(=O)Nc2cccc(Cl)c2Cl)o1` (configuration not stated) reads inactive: 15.3%.
The result for `CC(C)(C)C(=O)Nc1nnc(SCC(=O)NC2CC2)s1` reads inactive: 1.18%; that for `O=C(COC(=O)c1cc(=O)[nH]c2ccccc12)NC(=O)NC1CCCCC1`, inactive: 31.6%.
The same measure for `COc1ccccc1NC(=O)CN1CCN(c2ccc(F)cc2)CC1`: inactive: -8.31%.
As for `Cc1cc(NC(=O)CON=C(N)CC(=O)Nc2ccccc2Cl)ccc1Br`, the “growth rescue (activation)” value was inactive: 2.35%.
Regarding `COc1ccc(CNC(=O)COC(=O)/C=C/c2cccc(Br)c2)cc1`, the “growth rescue (activation)” value was inactive: 7.61%.
The result for `C=CCN=C1S/C(=C\c2ccc(Cl)cc2)C(=O)N1CC=C` reads inactive: 32%.
The same measure for `COc1ccc(NC(=O)C2CCN(S(=O)(=O)c3cccc4nonc34)CC2)cc1`: inactive: 6.43%; for `CCN(CC)CCN1C(=O)C(=O)/C(=C(/O)c2c(C)[nH]c(C(=O)OC)c2C)C1c1ccccc1OC` (configuration not stated): inactive: 3.42%.
The result for `CCOC(=O)C1CCN(C(=O)c2ccccc2NS(=O)(=O)c2cc(C)ccc2C)CC1` reads inactive: 7.01%.
Turning to `CCOc1ccc(N=CNc2ccc(OCC)cc2)cc1`, the “growth rescue (activation)” value is inactive: 4.18%.
The result for `COc1ccc2c(c1)CCc1sc(NC(=O)c3ccc(Cl)cc3)nc1-2` reads inactive: 19%; that for `OC(c1ccc(F)c(F)c1)c1nc(-c2ccc(F)c(Cl)c2)cs1` (configuration not stated), inactive: -91.9%.
The same measure for `COc1cccc(/C=C/C(=O)N2CC(C)OC(C)C2)c1OC` (configuration not stated): inactive: 4.98%; for `O=C(O)CCCN1C(=O)/C(=C\c2ccccc2OCc2ccccc2)SC1=S`: inactive: -10.9%; for `Cc1cc(C2=NNC(=NC3CC3)SC2)c(C)n1Cc1ccco1`: inactive: 6.93%.
The same measure for `CC(C)Oc1ccc(C(=O)Nc2nc3ccccc3[nH]2)cc1`: inactive: -19%.
As to `CCCCNC(=O)C1(C)CCN1C(=O)c1ccccc1Br` (configuration not stated), the “growth rescue (activation)” value was inactive: 7.32%.
The same measure for `CCN(CC)S(=O)(=O)N1CCC(C(=O)NCc2ccco2)CC1`: inactive: -7.88%.
The result for `O=[N+]([O-])c1cc(S(=O)(=O)O)cc([N+](=O)[O-])c1NN(c1ccccc1)c1ccccc1` reads inactive: -3.15%; that for `Cc1cc(N2C(=O)C3C4CCC(C4)C3C2=O)no1` (configuration not stated), inactive: -7.31%.
The same measure for `CC(C)c1ccccc1NC(=O)CCCC(=O)O`: inactive: 21.1%; for `CCc1ccc(N(CC(=O)Nc2ccc(OC)cc2OC)S(C)(=O)=O)cc1`: inactive: -16.7%.
On to `CN(C)c1ccc(/C=C(\NC(=O)c2ccccc2)C(=O)NCCCn2ccnc2)cc1`, for which the “growth rescue (activation)” value is inactive: 2.19%.
The same measure for `CCCCn1c(=O)[nH]c(=O)c2c1nc(-c1ccc(OC)c(Br)c1)n2CC(C)C`: inactive: 21%.
Consider `COC(=O)c1ccc(NC(=O)CCc2c(C)nc3c(c(C)nn3-c3ccc(C)cc3)c2C)cc1`, for which the “growth rescue (activation)” value is inactive: 1.86%.
The same measure for `Cc1nnc(NN)n(N)c1=O`: inactive: 3.69%; for `CCCCN(C=O)c1c(CC)nc2ccc(C(=O)N(CC)CCN(C)C)cn12`: inactive: -0.931%; for `NC(=O)COC(=O)CNC(=O)c1sc2ccccc2c1Cl`: inactive: 7.32%.
The same measure for `CCOc1ccc(Br)cc1S(=O)(=O)Nc1ccc(NC(=O)c2ccccc2F)cc1`: inactive: 18%.
The same measure for `CCN(CC)S(=O)(=O)c1cc(C(=O)OCC(=O)NC(=O)c2cccn2C)ccc1C`: inactive: 3.12%; for `Cn1c(=O)c2cc(NC(=O)NCCc3ccccc3)ccc2n1Cc1cccc(C(F)(F)F)c1`: inactive: 9.27%; for `Cc1cc(N/N=C(/CCC(=O)O)C(=O)O)nc2ccccc12`: inactive: 2.29%.
Take `NNC(=O)c1ccc(COCC(F)(F)C(F)F)cc1`: the “growth rescue (activation)” value is inactive: -0.776%.
For `O=C(COC(=O)/C=C/c1ccccc1[N+](=O)[O-])Nc1ccc(S(=O)(=O)N2CCOCC2)cc1`, the “growth rescue (activation)” value is inactive: 10.1%.
Regarding `CCCCN(C=O)c1c(CC)nc2ccc(C(=O)NCCCN3CCCC3=O)cn12`, the “growth rescue (activation)” value was inactive: 7.4%.
The same measure for `CCOc1ncccc1C(=O)OCc1ccccc1`: inactive: 9.57%.
The same measure for `CC(=O)c1sc2nc(-c3ccco3)ccc2c1N`: inactive: -17.3%; for `COC(=O)c1ccc(C2C(C(C)=O)=C(O)C(=O)N2CCO)cc1` (configuration not stated): inactive: -6.83%; for `COc1ccc(S(=O)(=O)c2c(O)cc(C)c(NS(=O)(=O)c3ccccc3)c2C)cc1`: inactive: 7.73%.
Consider `O=c1c(Cc2ccc(Cl)cc2)c(O)ccn1Cc1cccs1`, for which the “growth rescue (activation)” value is inactive: -3.42%.
The same measure for `CN(Cc1ccccc1)C(=O)c1ccc2c(c1)NC(=O)C(N1CCOCC1)S2` (configuration not stated): inactive: 27.4%; for `Cc1c(NS(=O)(=O)c2ccc3c(c2)c(=O)n(C)c(=O)n3C)c(=O)n(-c2ccccc2)n1C`: inactive: 17%; for `O=C(NCC(=O)N1CC=C(c2ccccc2)CC1)c1ccc(F)cc1`: inactive: 12%.
The result for `Cc1sc(NC(=O)CN2CCCC2)nc1-c1ccc2c(c1)CCN2C(=O)c1cccc(F)c1` reads inactive: 8.85%; that for `COc1cc(C(=O)NCCOC(=O)c2cccc(N(C)C)c2)cc(OC)c1OC`, inactive: 19.1%.
The same measure for `CCOc1cc(/C=C2\SC(N3CCCCC3)=NC2=O)ccc1O`: inactive: 5.56%; for `CN(C(=O)CSc1nc(O)cc(=O)n1C1CCCC1)c1ccccc1`: inactive: 3.99%.
As to `O=C(c1cccc2ccccc12)N1CCN(c2ccc([N+](=O)[O-])c(NCc3ccco3)c2)CC1`, the “growth rescue (activation)” value was inactive: -4.26%.
The same measure for `COc1ccc(NC(=O)c2cc(C3CCCCN3C(=O)c3ccccc3)on2)c(C)c1` (configuration not stated): inactive: 7.36%; for `O=C1Cc2cc(S(=O)(=O)Nc3ccc(N4CCOCC4)cc3)ccc2N1`: inactive: 0.372%.
The result for `CC(C)Oc1cccc(C(=O)C2CCCN(C(=O)CCc3cnn(C)c3)C2)c1` (configuration not stated) reads inactive: 0.902%; that for `Cc1oc(-c2cc(F)ccc2F)nc1CN1CCCN(C(=O)c2ccco2)CC1`, inactive: 8.12%.
For `COc1cccc(-c2cnc(C(O)c3ccccc3OC)[nH]2)c1` (configuration not stated), the “growth rescue (activation)” value is inactive: 1.73%.
The same measure for `Cc1nn(Cc2ccccc2)c(Cl)c1C(=O)OCC#N`: inactive: 10.7%; for `Cc1c(NC(=O)/C(C#N)=C/C2CC=CCC2)c(=O)n(-c2ccccc2)n1C` (configuration not stated): inactive: 18.3%.
